The campaign covered roughly 310,000 compounds. About 2,200 (0.71%) showed an effect of 50% or more. The effect is printed as a negative number. This is one part of the list.
The compounds below were run against human ether-à-go-go-related gene (hERG) potassium channel (human, UniProt Q12809) (assay: primary screen, population patch clamp on CHO cells stably expressing hERG).
Sequence of human ether-à-go-go-related gene (hERG) potassium channel (Q12809 whole entry, looked up): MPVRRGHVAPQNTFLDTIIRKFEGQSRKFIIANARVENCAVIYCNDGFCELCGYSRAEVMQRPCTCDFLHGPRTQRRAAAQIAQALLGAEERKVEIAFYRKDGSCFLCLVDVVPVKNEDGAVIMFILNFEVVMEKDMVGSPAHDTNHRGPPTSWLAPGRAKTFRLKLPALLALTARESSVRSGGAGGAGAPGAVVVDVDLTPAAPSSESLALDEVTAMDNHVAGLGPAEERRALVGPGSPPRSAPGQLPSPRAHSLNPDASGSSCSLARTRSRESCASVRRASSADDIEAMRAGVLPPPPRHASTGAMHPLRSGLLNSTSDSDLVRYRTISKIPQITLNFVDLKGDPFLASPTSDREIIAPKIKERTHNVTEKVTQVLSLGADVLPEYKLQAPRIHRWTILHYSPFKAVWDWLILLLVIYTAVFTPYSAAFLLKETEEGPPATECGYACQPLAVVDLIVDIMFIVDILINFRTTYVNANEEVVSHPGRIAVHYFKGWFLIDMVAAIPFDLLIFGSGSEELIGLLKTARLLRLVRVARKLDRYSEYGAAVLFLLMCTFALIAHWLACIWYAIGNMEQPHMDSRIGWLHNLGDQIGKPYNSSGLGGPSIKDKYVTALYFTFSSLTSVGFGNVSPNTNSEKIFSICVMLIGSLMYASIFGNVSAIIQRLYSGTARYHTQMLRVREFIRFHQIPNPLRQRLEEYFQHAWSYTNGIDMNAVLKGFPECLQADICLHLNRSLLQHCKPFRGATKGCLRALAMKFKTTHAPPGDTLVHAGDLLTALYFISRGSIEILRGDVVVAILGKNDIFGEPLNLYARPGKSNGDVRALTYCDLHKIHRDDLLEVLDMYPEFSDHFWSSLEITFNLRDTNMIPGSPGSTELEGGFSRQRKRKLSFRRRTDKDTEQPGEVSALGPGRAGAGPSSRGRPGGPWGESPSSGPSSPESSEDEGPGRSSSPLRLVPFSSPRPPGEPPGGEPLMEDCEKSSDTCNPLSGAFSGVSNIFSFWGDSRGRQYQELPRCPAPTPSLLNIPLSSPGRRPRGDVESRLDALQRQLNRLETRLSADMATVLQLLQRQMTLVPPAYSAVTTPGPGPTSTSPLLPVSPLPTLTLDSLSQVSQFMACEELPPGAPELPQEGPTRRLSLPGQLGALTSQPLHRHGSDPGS

| SMILES | hERG current change (%, negative = inhibition) at 1uM |
| --- | --- |
| Cn1cccc1C(=O)C(=O)Nc1ccc(F)c(F)c1 | 2.72% |
| COCCN=C1OC(=O)N2C(=O)C3=C4[C@@H](C[C@H]5C(=O)N(c6ccccc6)C(=O)[C@H]5[C@H]4[C@@]12Cc1ccccc1)[C@H]1C(=O)N(c2ccccc2)C(=O)[C@H]1[C@H]3C | 14.3% |
| Cc1ccc(C(=O)N2CC(=O)Nc3ccc(F)cc3C2c2ccccc2)cc1 (stereo not shown) | 11.7% |
| O=C(Cc1ccc(F)cc1)N/N=C/c1ccc(-c2ccc(Cl)c(C(=O)O)c2)o1 | 39% |
| O=C(CCN1CCN(C/C=C/c2ccccc2)CC1)Nc1ccccc1 | -79% |
| Cc1c(Cl)c(C(=O)NNC(=S)NCc2ccco2)nn1C | 2.71% |
| Cc1cc(OCC(=O)NNC(=S)NC(=O)c2cccs2)ccc1Cl | 12.2% |
| COC(=O)C(CCSC)NC(=O)c1cc2c(n(-c3ccc(C)cc3)c1=O)CCCC2=O (stereo not shown) | 9.13% |
| CC(=O)Nc1ccc2c(c1)C(=O)N(c1ccc(C)cc1)C2=O | 4.7% |
| CCc1c(C(=O)NC(C)C2CCCO2)csc1C (stereo not shown) | -4.32% |
| CCc1nnc(NC(=O)CSc2nc(C)cs2)s1 | 11.8% |
| Cc1ccc(C(=O)N2CCN(c3ncnc4c(-c5ccccc5)nsc34)CC2)cc1 | 2.78% |
| CCOc1ccccc1NC(=O)c1ccccc1N(C)S(=O)(=O)c1ccc(C)cc1 | 1.87% |
| Cc1cc2ncn(C(=O)c3ccc(F)cc3)c2cc1C | 11.5% |
| O=C(O)c1ccc(N/N=C/C(Br)=C/c2ccccc2)cc1 | 10.8% |
| CCc1nnc(NC(=O)CSc2nnc(CNC(=O)c3cc(OC)c(OC)c(OC)c3)o2)s1 | 20.9% |
| O=C(Nc1ccc(F)cc1)C1CCCN(c2cnccn2)C1 (stereo not shown) | -13.4% |
| Cc1cc(Oc2ccc(C)c(Cl)c2)nc(SCC(=O)c2ccccc2)n1 | 9.85% |
| Oc1ccc(N2CCN(CC(O)c3ccccc3)CC2)cc1 (stereo not shown) | 16.2% |
| O=C(Nc1cccc2cccnc12)c1ccccc1Cl | 9.51% |

| SMILES | hERG current change (%, negative = inhibition) at 1uM |
| --- | --- |
| COc1ccc2c(c1OC)C(=O)N(c1cccc(/C=C/C(=O)O)c1)C2 | 13.5% |
| Cc1ccc(C)c(C(=O)OCC(=O)Nc2ccc(N3CCOCC3)cc2)c1 | 12.4% |
| CCC1=NN2C(=N)/C(=C\c3ccc(OCCOc4ccccc4OC)cc3)C(=O)N=C2S1 | 10.4% |
| COc1cc(CCCN2C(=O)C(=O)NC[C@@H]2C(C)O)cc(OC)c1OC (stereo partly shown) | 9.42% |
| CCOC(=O)/C(C#N)=C\c1ccc(N2CCN(C/C=C/c3ccccc3)CC2)cc1 | 8.07% |
| COc1ccc(N2CCN(/C(=N\S(=O)(=O)c3ccc(C)cc3)Nc3nc(C)cc(C)n3)CC2)cc1 | 7.99% |
| Cc1cc(C)nc(Nc2n[nH]c(-c3ccccc3Br)n2)n1 | 14.4% |
| CCc1cc(=O)[nH]c(SCC(=O)N2CCOCC2)n1 | 2.76% |
| CC1CCC2(CC1)NC(=O)N(CC(=O)N1CCN(c3ccccc3)CC1)C2=O (stereo not shown) | 9.36% |
| COc1ccc(C(C(=O)NC2CCCC2)N(C(=O)Cc2cccs2)C2CC2)cc1OC (stereo not shown) | 11% |
| CCC(=O)c1ccc(OCC(=O)N2CCN(c3ccccn3)CC2)cc1 | -12.7% |
| COCC(C)NC(=O)c1oc2c(c1C)C1(CCC2)SCCS1 (stereo not shown) | 19.7% |
| CCC(Sc1ccccc1C(=O)O)C(=O)O (stereo not shown) | 13.6% |
| CCOC(=O)c1ccc2c(c1)N(C)C(=O)c1ccccc1S2 | 17.4% |
| Cc1ccc(CC2CC(=O)N(c3ccc(Cl)cn3)C2=O)cc1 (stereo not shown) | 9.15% |
| CC(=O)C1=C(c2ccccc2)NC(=O)NC1c1ccccc1 (stereo not shown) | 15.4% |
| O=c1c2ccccc2ncn1-c1ccc2c(c1)OCCO2 | 2.75% |
| CCOc1ccc(NC(=O)c2cc3cc4ccc(C)cc4nc3o2)cc1 | 5.98% |
| Cc1cc(C)nc(SCCN2CCCCC2)n1 | 14.5% |
| COc1ccccc1C(=O)NCCC(=O)NCc1cccs1 | 5.41% |

| SMILES | hERG current change (%, negative = inhibition) at 1uM |
| --- | --- |
| C/C(=N\NC(=O)c1cccnc1)c1ccc(C)c([N+](=O)[O-])c1 | 3.07% |
| CCCc1cc(=O)oc2c3c(cc(OCC(=O)NCCN4CCOCC4)c12)OC(C)(C)CC3 | 3.57% |
| COCc1nnc(NC(=O)CCC2CCCCC2)s1 | 6.28% |
| COc1ccc(CCNC(=O)/C(=C/c2cccnc2)NC(=O)c2ccccc2)cc1OC | 12.7% |
| Cc1ccccc1NC(=O)CN1C(=O)S/C(=C/c2cccnc2)C1=O | 13.9% |
| CCCCn1nnc(NC(=O)c2ccc(-c3ccccc3[N+](=O)[O-])o2)n1 | 9.81% |
| CCN(CC)S(=O)(=O)c1ccc2oc(C(=O)O)c(C)c2c1 | 0.94% |
| O=c1c(NCCc2ccccc2)c(-c2ccccc2)c1=O | 21.6% |
| FC(F)c1nnc2ccc(Cl)nn12 | 22.4% |
| COc1cccc(C(=O)Nc2ccccc2F)c1 | 12.7% |
| Cc1sc(NC(=O)CSc2nnnn2C(C)C)c(C#N)c1C | 13.9% |
| Cl.NCCCC(N)(C(=O)O)C(F)F (stereo not shown) | 17% |
| CC(=O)Nc1ccc(C(=O)CN2C(=O)CSC2=O)cc1 | 5.53% |
| O=C(COc1ccc(Cl)cc1)NCc1nnc(SCC(=O)N2CCCC2)o1 | -3.96% |
| CN(CC(=O)Nc1ccc(Cl)c(C(F)(F)F)c1)C(=O)/C=C/c1cccs1 | 14.7% |
| CCOC(=O)c1c(C)n(C)c2ccc(O)c(CN(C)C)c12.O=C(O)C(=O)O | 0.986% |
| CC(=O)c1nn(-c2ccc(Cl)cc2)c(=O)[nH]c1=O | -8.86% |
| COc1ccc2c(-c3ccccc3)cc(SCC(=O)N(C)C)nc2c1 | 4.7% |

— article PMC4336329 (PLoS ONE, 2015)
